Measured values published in the RNAGym collection of RNA variant scans (doi:10.1093/nar/gkz1192).
The source gives no read counts; variants with many changes may rest on few reads.

B1: CPEB3 Ribozyme (parent)
chain: UAACAGGGGGCCACAGCAGAAGCGUUCACGUCGCAGCCCCUGUCAGAUUCUGGUGAAUCUGCGAAUUCUGCUGUAUAUCUC

Variants of: B1
Test: self-cleavage, relative activity (ratio to wild type); higher = more cleavage; in vitro, sequencing
In short: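 After error-prone PCR and barcoding, CPEB3 ribozyme mutant libraries were transcribed with T7 RNA polymerase at 37°C for 5 hours, then given 15 min with DNase I before an EDTA stop, and they cleaved during both steps. Reverse transcription with template switching preceded Illumina sequencing. Relative activity divides a variant's cleaved/total read fraction by the unmutated ribozyme's. At least 5 reads were required per variant, and three batches were averaged.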

Variant	self-cleavage
G8A A47U U48C A65G U72C U80C	0.14
G8A A13U U31C U48C A64U A77G U80C	0.05
G7U U51C A64G	0.05
G7U U41A A47U	0.17
G8A A18G A21G U25A C68G	0.04
G8A A20G C23A C29A U54A	0.26
G7U U26A A64G	0.18
G8A A57G A64U U72G	0.06
G8A A13C A15C U51C U72C	0.23
G7U U60C U74A	0.22
G8A A35G U54C A64U A75G	0.09
G8A A15G G30C A65G	0.38
G7U U60C A77U	0.16
G7U U26A U49C U58C	0.14
G7U U74C A75U	0.08
G8A A35U U60C U72C U80C	0.05
G8A A56G U74A	0.09
G8A A20U U54C U67C A77G	0.08
G8A A13C U26C U67C C71U	0.06
G7U U31A G36A	0.07
G7U U60C A65G U74C	0.05
G7U U25C U58C U60A U66C	0.07
G8A A45U A77U	0.16
G8A A13U A21G G36A U78C	0.15

Variant	self-cleavage
G8A A28C A45C A47G A56U A57G U69C	0.06
G8A A13U C40U A77G	0.07
G8A C11U A15C A45G U80C	0.05
G8A A15U U48C A65G	0.08
G8A A18C C59A	0.05
G8A A21G U31A	0.09
G7U U25C A28U U78A	0.04
G8A C14G A21U U74A	0.05
G8A A13G A20G U26A U54C U78C	0.22
G8A A35G U41C	0.53
G8A A13U C14G G33A A47C	0.08
G8A A13U A15C A47G U49A	0.07
G8A A21G A77G	0.13
G8A A28G U51C	0.32
G8A A20G G33A A64G C68U	0.05
G8A A21G U51A U60A A65G A77G	0.03
G7U U60C U72C U80A	0.06
G8A A35U U80C	0.21
G8A A15U A21G U43C U49C A75G	0.17
G7U U72A U80A	0.22
G8A A28G U31A G33U U60A U67C A75G	0.08
G8A C11G A13G A28U C29U U41A U80A	0.37
G8A A18G U31C A57G U67C	0.05
G7U U51A U54C	0.24

Variant	self-cleavage
G8A A20G A57G	0.33
G8A C14A U41A U58A U80A	0.14
G7U U25A U43C U49C U60C U72G A77U	0.05
G8A A13G U48C U54C	0.09
G7U U41C U76C C81U	0.06
G8A A20G U69C U78C	0.05
G8A A13G U43A	0.14
G7U U26C C29U U51A	0.07
G8A A20G A56G	0.21
G8A A18U U25C	0.06
G7U U26C U31C U78C	0.19
G8A A20G A45G	0.29
G8A A20U A35U U49C	0.02
G8A A15G C68A	0.17
G8A C11U A56U A57G U67C	0.07
G8A A15G A35G G52A	0.11
G7U G24A U80A	0.04
G8A A18C A77G	0.3
G8A A20G A21G A35C A47G G73A	0.07
G8A A28G U54C A56G A77G	0.47
G8A A13U U69C U76C	0.38
G8A A13U U41A A45U U54A A65U	0.05
G8A A18G A21G C40U U41A G63A U74C	0.07
G8A A35C A64G	0.09

Variant	self-cleavage
G8A A15G G53C G63U	0.38
G8A A21G C38U U60G U69C	0.03
G8A C11A A15G	0.04
G8A C11A A20U U72A	0.05
G8A A15G U76C	0.19
G8A A21G U51C	0.17
G7U U25C U26G A35G U60A	0.27
G8A C12U U41A A57G C62G U74C	0.02
G7U U48C U49C U60A U78C	0.13
G8A C14U G19C C40U U43G A57G U72A	0.04
G8A A13G A15G A35U U51C A77G	0.14
G8A A13U U54A U67C U74C A75U	0.06
G8A A13U A15G A21G U26C G33A A64U	0.05
G7U U41C U51C U76C	0.04
G8A C17A A35G	0.07
G8A A57G U66C	0.34
G8A C11A A15G A18U A20U A45G	0.08
G8A A18U U41C A47C A65U U76A U80C	0.04
G7U G36A U60C	0.08
G7U U66C U72C	0.14
G7U G46U U54C A56G U72A	0.08
G8A A20G A35G C40U U49C	0.46
G8A A15G A18G U69A	0.25
G8A A65G U72C	0.06

Variant	self-cleavage
G8A A65G U72A	0.34
G8A A45U G63A A64U	0.06
G8A A21G U60A	0.06
G7U U31G U54G	0.15
G7U U41C C44G A45U A56G U66C	0.05
G8A A20G U48C U49C U78C	0.04
G8A A45U A57G U74C	0.07
G8A A13U A65G U80C	0.06
G8A A28G G33U C40A U67C	0.06
G8A A13U A20C U25C U41C	0.21
G8A A28C A45G U69C	0.05
G8A A28U U48G U51A U60A A64U	0.12
G8A C11A C23A A45U U54A	0.05
G8A C12U U43C U76A	0.05
G8A A20U U43C C44A U60C	0.05
G8A C12A U26C U31C	0.06
G8A A28G U31C U69A A77U	0.06
G8A A20U U41C A57G U76A	0.04
G7U U49C U54A	0.16
G8A A13G A21U U26C U48C A56G A64U	0.07
G7U U60C U69A	0.35
G8A A20G A64U U78C	0.05
G8A A18G U26A A28U G36A U69A	0.04
G8A A13U C29U C34A U41A U60C U74A	0.03

Variant	self-cleavage
G8A A18G A45U U49C U69A	0.06
G7U U31G C32G U43A U54C U66C	0.06
G8A A28C U51C U72C	0.22
G8A A15G U31C U41C A56U U72C A75G	0.04
G7U U69A U76C	0.08
G8A A64U U72A	0.1
G8A A13U A21G A47G A64U A65G U76C	0.03
G8A A21G U26C C29A G70A U72C	0.04
G7U U51C U80C	0.19
G8A A18G U26A A45U U78C	0.45
G7U U25C G30C A64U	0.21
G8A A28G G33U	0.15
G8A A18G A28G U41C U80A	0.06
G8A A13G G19A U31A G52A U76A A77U	0.04
G8A A15C U60C U78C	0.78
G8A C11A A13U A18G	0.1
G8A A15G C27G U43C U60A U66C U80A	0.22
G8A A56U U58C A65G	0.07
G7U G22C U26A U41A A57G	0.13
G8A A45U A56U U72C	0.15
G8A A15U U31C U78C	0.08
G8A A13U C23U A45U U60C	0.25
G8A C17U A28G C38U G70A U76C	0.03
G7U U60A A64G	0.22

Variant	self-cleavage
G8A A18G U26G A28U	0.22
G7U U26A U48C A57G	0.14
G8A A15G U26A A35G	0.34
G7U U54A U72G	0.08
G8A A13G C23G C37U	0.12
G7U G22C U31A U41A G73U	0.17
G8A A18U C37G U43A U67C	0.04
G7U G46U A64G	0.06
G8A A13G U26A A28G G33U U48C	0.04
G7U U26C U67A U80C	0.06
G8A A45G A64G A75G	0.16
G8A A28G U54C A57U U60C A75G	0.05
G8A A47G U49C	0.16
G8A A47G U49A	0.24
G8A A20U A21G A47G U54G U72C U78C	0.16
G8A A15U A28C U54C G63A	0.13
G8A A13U A57G	0.07
G7U U31C U41C U67C	0.36
G7U U25A U26C A77G U78C	0.14
G8A A28C A65G U72A U80A	0.05
G8A A57G U72C	0.09
G8A A13G G52U U67A U76C U78C	0.03
G8A A28G G30A G33U	0.07
